# Measured values: the supplement of paper PMC10037445
# Whole data set: some 2,900 compounds, median “NF-kB SEAP reporter activity, fold change vs agonist alone” near 0.99, cut for the highest 2% near 2.6. The list shows a part of the results.
# Legend:
# RAW-Dual [1] = test: NF-kB SEAP reporter activity, fold change vs agonist alone; higher = enhanced NF-kB activity; settings: library stock concentration (final ~1000-fold dilution): 10 mM
# In short: (§1)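 Supernatant from RAW-Dual macrophages was read after 20 hours for IRF by QuantiLuc luminescence and for NF-κB by QuantiBlue absorbance at 620 nm. The cells (50,000 cells/well in DMEM, 384-well plates, 37 °C, 5% CO2) had received 50 nL of library stock by pin tool and, 1 h later, a PRR agonist. Reporter activity is expressed relative to agonist-alone wells as fold change, and wells were flagged cytotoxic if IncuCyte confluency was under 70% of agonist controls in both mask sets.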
# RAW-Dual [2] = test: NF-kB SEAP reporter activity, fold change vs agonist alone; cytotoxicity flag (confluency mask): not cytotoxic; higher = enhanced NF-kB activity
# In short: as §1
# RAW-Dual [3] = test: NF-kB SEAP reporter activity, fold change vs agonist alone; cytotoxicity flag (confluency mask): cytotoxic (confluency <70% of control); higher = enhanced NF-kB activity
# In short: as §1
# [4] = cytotoxicity flag (confluency mask): not cytotoxic, agonist: MPLA (TLR4) […]
# [5] = agonist: ODN 1826 (TLR9) 0.5 ug/mL
# [6] = agonist: Pam2CSK4 (TLR2/6) 0.1 ug/mL
# [7] = agonist: Pam3CSK4 (TLR2/1) 0.1 ug/mL
# [8] = cytotoxicity flag (confluency mask): not cytotoxic, agonist: Imiquimod (TLR7) […]
smiles,measurement,setting,value
N#C/C(=C\c1cn(-c2ccccc2)c2ccccc12)C(=O)O,NF-kB SEAP reporter activity,RAW-Dual [1]; [4],0.864
N#C/C(=C\c1cn(-c2ccccc2)c2ccccc12)C(=O)O (library stock concentration (final ~1000-fold dilution): 10 mM),NF-kB SEAP reporter activity,RAW-Dual [2]; agonist: LPS (TLR4) 0.1 ug/mL,0.823
same,NF-kB SEAP reporter activity,RAW-Dual [2]; [5],0.857
same,NF-kB SEAP reporter activity,RAW-Dual [2]; [6],0.954
same,NF-kB SEAP reporter activity,RAW-Dual [2]; [7],0.662
Brc1ccc(C2CN3CCSC3=N2)cc1.O=C(O)C(=O)O (stereo not drawn) (library stock concentration (final ~1000-fold dilution): 10 mM),NF-kB SEAP reporter activity,RAW-Dual [2]; agonist: LPS (TLR4) 0.1 ug/mL,1.48
same,NF-kB SEAP reporter activity,RAW-Dual [2]; [5],0.888
same,NF-kB SEAP reporter activity,RAW-Dual [2]; [6],0.956
same,NF-kB SEAP reporter activity,RAW-Dual [2]; [7],1.01
Brc1ccc(C2CN3CCSC3=N2)cc1.O=C(O)C(=O)O (stereo not drawn),NF-kB SEAP reporter activity,RAW-Dual [1]; [8],0.948
same,NF-kB SEAP reporter activity,RAW-Dual [1]; [4],1.01
CCN(CC)CCNC(=O)c1cc(Cl)c(N)cc1OC,NF-kB SEAP reporter activity,RAW-Dual [1]; [8],0.902
same,NF-kB SEAP reporter activity,RAW-Dual [1]; [4],1.14
CCN(CC)CCNC(=O)c1cc(Cl)c(N)cc1OC (library stock concentration (final ~1000-fold dilution): 10 mM),NF-kB SEAP reporter activity,RAW-Dual [2]; agonist: LPS (TLR4) 0.1 ug/mL,0.998
same,NF-kB SEAP reporter activity,RAW-Dual [2]; [5],0.933
same,NF-kB SEAP reporter activity,RAW-Dual [2]; [6],1
same,NF-kB SEAP reporter activity,RAW-Dual [2]; [7],1.04
COc1cc2c(Oc3ccc(NC(=O)C4(C(=O)Nc5ccc(F)cc5)CC4)cc3F)ccnc2cc1OCCCN1CCOCC1,NF-kB SEAP reporter activity,RAW-Dual [1]; [8],0.252
same,NF-kB SEAP reporter activity,RAW-Dual [1]; [4],0.252
COc1cc2c(Oc3ccc(NC(=O)C4(C(=O)Nc5ccc(F)cc5)CC4)cc3F)ccnc2cc1OCCCN1CCOCC1 (library stock concentration (final ~1000-fold dilution): 10 mM),NF-kB SEAP reporter activity,RAW-Dual [2]; agonist: LPS (TLR4) 0.1 ug/mL,0.266
same,NF-kB SEAP reporter activity,RAW-Dual [2]; [5],0.184
same,NF-kB SEAP reporter activity,RAW-Dual [2]; [6],0.0818
same,NF-kB SEAP reporter activity,RAW-Dual [2]; [7],0.137
CC(=O)c1ccc2c(c1)c1cc(C(C)=O)ccc1n2CCNC(C)C,NF-kB SEAP reporter activity,"RAW-Dual [1]; cytotoxicity flag (confluency mask): cytotoxic (confluency <70% of control), agonist: Imiquimod (TLR7) […]",0.147
same,NF-kB SEAP reporter activity,"RAW-Dual [1]; cytotoxicity flag (confluency mask): cytotoxic (confluency <70% of control), agonist: MPLA (TLR4) […]",0.242
CC(=O)c1ccc2c(c1)c1cc(C(C)=O)ccc1n2CCNC(C)C (library stock concentration (final ~1000-fold dilution): 10 mM),NF-kB SEAP reporter activity,RAW-Dual [3]; agonist: LPS (TLR4) 0.1 ug/mL,0.301
same,NF-kB SEAP reporter activity,RAW-Dual [3]; [5],0.193
same,NF-kB SEAP reporter activity,RAW-Dual [3]; [6],0.0764
same,NF-kB SEAP reporter activity,RAW-Dual [3]; [7],0.183
COc1cc(N2CCC(N(C)C)CC2)ccc1Nc1ncc(Cl)c(Nc2ccccc2P(C)(C)=O)n1 (library stock concentration (final ~1000-fold dilution): 10 mM),NF-kB SEAP reporter activity,RAW-Dual [2]; agonist: LPS (TLR4) 0.1 ug/mL,1.87
same,NF-kB SEAP reporter activity,RAW-Dual [2]; [5],1.64
same,NF-kB SEAP reporter activity,RAW-Dual [2]; [6],1.03
same,NF-kB SEAP reporter activity,RAW-Dual [2]; [7],1.46
COc1cc(N2CCC(N(C)C)CC2)ccc1Nc1ncc(Cl)c(Nc2ccccc2P(C)(C)=O)n1,NF-kB SEAP reporter activity,RAW-Dual [1]; [8],1.64
same,NF-kB SEAP reporter activity,RAW-Dual [1]; [4],2.05
Cl.Clc1ccc2nsnc2c1NC1=NCCN1 (library stock concentration (final ~1000-fold dilution): 10 mM),NF-kB SEAP reporter activity,RAW-Dual [2]; agonist: LPS (TLR4) 0.1 ug/mL,0.929
same,NF-kB SEAP reporter activity,RAW-Dual [2]; [5],0.949
same,NF-kB SEAP reporter activity,RAW-Dual [2]; [6],1.1
same,NF-kB SEAP reporter activity,RAW-Dual [2]; [7],0.986
Cl.Clc1ccc2nsnc2c1NC1=NCCN1,NF-kB SEAP reporter activity,RAW-Dual [1]; [8],0.909
same,NF-kB SEAP reporter activity,RAW-Dual [1]; [4],0.881
Nc1ccccc1S(N)(=O)=O,NF-kB SEAP reporter activity,RAW-Dual [1]; [4],1.07
Nc1ccccc1S(N)(=O)=O (library stock concentration (final ~1000-fold dilution): 10 mM),NF-kB SEAP reporter activity,RAW-Dual [2]; agonist: LPS (TLR4) 0.1 ug/mL,1.36
same,NF-kB SEAP reporter activity,RAW-Dual [2]; [5],0.952
same,NF-kB SEAP reporter activity,RAW-Dual [2]; [6],0.995
same,NF-kB SEAP reporter activity,RAW-Dual [2]; [7],1.05
CC(C)[N+](C)(CCOC(=O)C1c2ccccc2Oc2ccccc21)C(C)C (library stock concentration (final ~1000-fold dilution): 10 mM),NF-kB SEAP reporter activity,RAW-Dual [2]; agonist: LPS (TLR4) 0.1 ug/mL,0.964
same,NF-kB SEAP reporter activity,RAW-Dual [2]; [5],0.96
same,NF-kB SEAP reporter activity,RAW-Dual [2]; [6],0.905
same,NF-kB SEAP reporter activity,RAW-Dual [2]; [7],0.976
CC(C)[N+](C)(CCOC(=O)C1c2ccccc2Oc2ccccc21)C(C)C,NF-kB SEAP reporter activity,RAW-Dual [1]; [4],1.08
COc1ccccc1Nc1nc(-c2sc(NC(C)=O)nc2C)cs1,NF-kB SEAP reporter activity,RAW-Dual [1]; [8],0.623
same,NF-kB SEAP reporter activity,RAW-Dual [1]; [4],0.687
